# Data published in PubChem BioAssay AID504466 (National Center for Advancing Translational Sciences (NCATS), 2011).
# Screen size: about 330,000 compounds; about 4,200 (1.3%) were called active. Inconclusive results, whose numbers are uncertain, are shown with a selection of clear calls. The call rests on the fitted dose curve; in most records, active means well fitted activation curve with a large enough effect; inconclusive means small, poorly fitted or top-dose-only effect; inactive means no such curve, though single readings can be large or run the other way. Potencies beside an inconclusive call are fits to weak or partial responses and may not hold up.
# Assay: qHTS screen for small molecules that induce genotoxicity in human embryonic kidney (HEK293T) cells expressing luciferase-tagged ELG1; further: nearly all actives have a fitted effect of over 60% in size
# Settings: HEK293T ELG1-luciferase reporter, luminescence, 16 h; series mostly up to 46 µM
# In short: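 16 hr compound incubation (37 °C, 5% CO2) of HEK293T cells carrying luciferase-tagged ELG1; luciferase then measured by ONE-Glo luminescence after 30 min at RT.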
# Potency means the concentration at half of the fitted maximal effect; tags describe the fitted curve by direction and shape.
row,Compound,Potency
1,Cc1cccc(NC(=O)c2ccc3c(c2)CCN3S(C)(=O)=O)c1,"inconclusive: 20.6 µM [activator, partial curve, poor fit]"
2,C/C(=N\NC(=O)c1ccc2ccccc2c1)c1cccs1,active: 2.06 µM
3,CCNc1nc(NCC)nc(N(CC)C(N)=S)n1,"inconclusive: 29.1 µM [activator, partial curve, poor fit]"
4,COc1ccc(C)c2sc(=NC(=O)c3ccccc3)n(C)c12,active: 6.51 µM
5,Fc1ccccc1CSc1nc2ccccc2[nH]1,"inconclusive: 1.78 µM [activator, full curve, poor fit]"
6,COc1ccc(NC(=O)c2cccs2)cc1,"inconclusive: 16.4 µM [activator, partial curve]"
7,O=C1N=C(N2CCOCC2)S/C1=C/c1cc2c(cc1[N+](=O)[O-])OCO2,"inconclusive: 18.3 µM [activator, single point]"
8,CCOC(=O)N/N=C/C=C/c1ccccc1,"inconclusive: 29.1 µM [activator, partial curve, poor fit]"
9,O=C(N/N=C/c1cccc(OC(=O)c2ccco2)c1)c1ccc(F)cc1,"inconclusive: 20.6 µM [activator, partial curve]"
10,COc1ccc(NC(=O)NC(c2ccccc2)c2ccccc2)c(OC)c1,inactive
11,COc1ccc(Nc2nc(N)nc(CCl)n2)cc1,"inconclusive: 29.1 µM [activator, partial curve, poor fit]"
12,Cc1ccc(C(=O)Nc2ncc(C)s2)o1,"inconclusive: 29.1 µM [activator, partial curve, poor fit]"
13,CC1(C)CC(=O)c2sc(NC(=O)CCS(=O)(=O)c3ccccc3)nc2C1,inactive
14,CN(CCc1ccccc1)C(=O)c1cc(COc2ccc(F)cc2Cl)on1,inactive
15,COCCn1c(C)cc(C2=NNC(=NC(C)(C)C)SC2)c1C,"inconclusive: 25.9 µM [activator, partial curve, poor fit]"
16,CC(=O)c1ccc(NC(=S)N2CCCC(CO)C2)cc1 (stereo not drawn),"inconclusive: 13 µM [activator, partial curve]"
17,C/C=C/C=C/C(=O)Nc1nccs1,inactive
18,Cc1nc2cc(-c3cccc(F)c3)nn2c(N2CCN(C(=O)c3ccco3)CC2)c1C,"inconclusive: 18.4 µM [activator, partial curve, poor fit]"
19,Cc1cc(C)nc(NC(=O)/C=C/c2ccc(Cl)cc2Cl)c1,"inconclusive: 13 µM [activator, partial curve, poor fit]"
20,CNc1nc(-c2ccc3c(c2)CCN3C(=O)c2ccccc2C)cs1,"inconclusive: 4.61 µM [activator, partial curve, poor fit]"
21,O=C(NC(Cc1ccccc1)C(=O)N1CCCCC1)c1ccccc1 (stereo not drawn),inactive
22,COc1cc(/C=C(\C#N)c2nc3c(s2)CC(C)CC3)ccc1O (stereo not drawn),"inconclusive: 14.6 µM [activator, partial curve, poor fit]"
23,Cc1nn2cc(-c3ccc(N)cc3)nc2s1,"inconclusive: 2.59 µM [activator, full curve, poor fit]"
24,O=C(CCCCl)NC(=S)Nc1ccc(N2CCOCC2)cc1,"inconclusive: 11.6 µM [activator, partial curve, poor fit]"
25,O=C(/C=C/c1ccco1)NC(=S)Nc1ccc(Cl)cn1,"inconclusive: 14.6 µM [activator, partial curve]"

row,Compound,Potency
1,O=C(NCc1nc(-c2ccccc2)cs1)c1ccccc1,inactive
2,COc1ccccc1Nc1nc(N)nc(-c2cc3ccccc3o2)n1,"inconclusive: 20.6 µM [activator, partial curve]"
3,O=[N+]([O-])c1ccc(-[n+]2ccc3ccccc3c2)c([N+](=O)[O-])c1,"inconclusive: 4.61 µM [activator, single point]"
4,COc1cc(NC(=S)N2CCC(C(O)(c3ccccc3)c3ccccc3)CC2)cc(OC)c1,inactive
5,CCc1cccc2c(C(=O)COC(=O)c3ccccc3)c[nH]c12,"inconclusive: 16.4 µM [activator, partial curve]"
6,O=C(NCc1cccs1)c1cc(S(=O)(=O)N2CCOCC2)ccc1N1CCCC1,inactive
7,NS(=O)(=O)c1cccc(NC(=O)c2cc3ccccc3o2)c1,inactive
8,O=C(Nc1ccccc1)C(=O)Nc1cccnc1,"inconclusive: 1.64 µM [activator, full curve]"
9,Cc1ccc(NC(=O)CCNC(=O)Cn2ccc3ccccc3c2=O)cc1F,"inconclusive: 18.3 µM [activator, partial curve, poor fit]"
10,Cc1ccc(-c2noc(-c3cccs3)n2)cc1,active: 0.651 µM
11,Cc1nc2cc3nc(C)sc3cc2s1,"inconclusive: 18.4 µM [activator, partial curve]"
12,Cc1cc(NC(=O)CSc2nnc(NCc3ccccc3)s2)no1,inactive
13,Cc1c2cnn(-c3ccccc3)c(=O)c2c(C)n1CCCC(=O)NCCN1CCN(C)CC1,inactive
14,COc1ccccc1OCc1ccc(C(=O)OCC2CCCO2)o1 (stereo not drawn),"inconclusive: 29.1 µM [activator, single point]"
15,CN1CCC(=O)N([C@H](CSc2ccc(Br)cc2)c2ccccc2)CC1,"inconclusive: 23.1 µM [activator, partial curve, poor fit]"
16,COc1cc(NC(=O)COc2ccccc2[N+](=O)[O-])ccc1NC(=O)c1cccs1,"inconclusive: 25.9 µM [activator, partial curve, poor fit]"
17,O=C1CC(c2ccco2)Sc2nc3ccccc3n21 (stereo not drawn),"inconclusive: 11.6 µM [activator, partial curve, poor fit]"
18,Cc1sc2nc(CSc3ccc([N+](=O)[O-])cc3)[nH]c(=O)c2c1C,"inconclusive: 18.3 µM [activator, partial curve, poor fit]"
19,Cc1ccc(C(=O)NC(=O)OCCn2c(C)cnc2[N+](=O)[O-])cc1,inactive
20,Cc1c(C(=O)O)cccc1-c1ccc(/C=N/Nc2ccc(Br)cc2)o1,"inconclusive: 16.4 µM [activator, single point]"
21,CCN(C(=O)c1ccco1)c1nnc(-c2cccnc2)s1,"inconclusive: 3.66 µM [activator, partial curve]"
22,Cc1cc(C(=O)CSc2nnnn2C)c(C)n1Cc1ccco1,"inconclusive: 10.3 µM [activator, partial curve, poor fit]"
23,CC(OC(=O)c1nn(C)c(=O)c2ccccc12)C(=O)NC1CCCCC1C (stereo not drawn),inactive
24,COC(=O)c1ccc2[nH]c3c(c2c1)CC(C)CC3 (stereo not drawn),"inconclusive: 18.3 µM [activator, partial curve, poor fit]"
25,COC(=O)CCC(=O)COc1ccc(OC)cc1C#N,"inconclusive: 9.2 µM [activator, single point]"

row,Compound,Potency
1,CSc1ccc(CNC(=O)Cc2ccc(NC(=O)C3=C(C)OCCS3)cc2)cc1,active: 13 µM
2,CC(=O)Nc1cc(-c2ccc(Cl)cc2)[nH]n1,"inconclusive: 16.4 µM [activator, partial curve, poor fit]"
3,CSCCC(NC(=O)c1ccccc1Cl)C(=O)Nc1ccncc1 (stereo not drawn),inactive
4,CN1CCSc2ccc(C(=O)Nc3cc(F)ccc3F)cc21,active: 2.59 µM
5,O=C(CNC(=O)c1ccc(Br)o1)NCc1ccc(Cl)cc1,inactive
6,COc1cc2c(cc1OC)-c1cc(Nc3ccc4c(c3)OCCO4)nc(=O)n1CC2,"inconclusive: 2.91 µM [activator, full curve]"
7,COc1cc(SC)ccc1C(=O)OC(C)C(=O)NC1CCCC1 (stereo not drawn),inactive
8,Cc1cc(=O)oc2cc(NC(=S)NCc3cccnc3)ccc12,"inconclusive: 23.1 µM [activator, partial curve, poor fit]"
9,COc1cc2[nH]c(=S)n(Cc3ccc(F)cc3)c(=O)c2cc1OC,"inconclusive: 25.9 µM [activator, single point]"
10,Cc1ccn2c(C(=O)NN=C3CCN(C)CC3)c(C)nc2c1,"inconclusive: 3.66 µM [activator, full curve, poor fit]"
11,CCOC(=O)c1c(NC(=O)c2ccccc2C)sc2c1CC(C)(C)OC2,inactive
12,O=C(COC(=O)C1CC1)Nc1nc(-c2ccc(F)c(F)c2)cs1,"inconclusive: 23.1 µM [activator, partial curve, poor fit]"
13,COc1ccc(NC(=O)Nc2cccs2)cc1OC,"inconclusive: 18.4 µM [activator, partial curve]"
14,Cc1cc(NC(=O)c2ccco2)sc1C,"inconclusive: 4.61 µM [activator, full curve]"
15,COc1ccc(C(=O)Nc2ccc3c4c(cccc24)CC3)cc1,inactive
16,Cc1nc(N/N=C/c2ccccn2)sc1C,active: 0.13 µM
17,CCOC(=O)c1[nH]c2ccc(OCC)cc2c1NC(=O)CN1CCC2(CC1)OCCO2,inactive
18,O=C(COc1ccc(Cl)cc1)Nc1ccc2c(c1)OCO2,"inconclusive: 35.5 µM [activator, partial curve, poor fit]"
19,Cc1cc(C(=O)CSc2nc3ccccc3[nH]2)c(C)n1Cc1ccco1,"inconclusive: 0.517 µM [activator, full curve]"
20,S=c1[nH]nc(-c2cccc(Cl)c2)n1CCN1CCCCC1,inactive
21,COc1cccc(C(=O)O/N=C(\N)c2ccc([N+](=O)[O-])cc2)c1,inactive
22,CCC(=O)Nc1ccc(NC(=O)c2cc3ccccc3o2)c(OC)c1,"inconclusive: 4.61 µM [activator, partial curve, poor fit]"
23,COc1ccc(C(CC(=O)c2ccc(O)cc2)S(=O)(=O)c2ccc(C)cc2)cc1 (stereo not drawn),"inconclusive: 29.1 µM [activator, partial curve, poor fit]"
